# Assay results published in publication PMC4336329 (PLoS ONE, 2015).
# The whole screen tested about 310,000 compounds, of which about 14,000 (4.5%) showed an effect of 50% or more. Effects have a minus sign here. The list shows a part of the results.
# Biological target: human ether-à-go-go-related gene (hERG) potassium channel (human, UniProt Q12809)
# Test: primary screen, population patch clamp on CHO cells stably expressing hERG
# 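Note: peak tail current of the secondary pulse compared with the same well before compound.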
# human ether-à-go-go-related gene (hERG) potassium channel, sequence (Q12809 whole entry, looked up): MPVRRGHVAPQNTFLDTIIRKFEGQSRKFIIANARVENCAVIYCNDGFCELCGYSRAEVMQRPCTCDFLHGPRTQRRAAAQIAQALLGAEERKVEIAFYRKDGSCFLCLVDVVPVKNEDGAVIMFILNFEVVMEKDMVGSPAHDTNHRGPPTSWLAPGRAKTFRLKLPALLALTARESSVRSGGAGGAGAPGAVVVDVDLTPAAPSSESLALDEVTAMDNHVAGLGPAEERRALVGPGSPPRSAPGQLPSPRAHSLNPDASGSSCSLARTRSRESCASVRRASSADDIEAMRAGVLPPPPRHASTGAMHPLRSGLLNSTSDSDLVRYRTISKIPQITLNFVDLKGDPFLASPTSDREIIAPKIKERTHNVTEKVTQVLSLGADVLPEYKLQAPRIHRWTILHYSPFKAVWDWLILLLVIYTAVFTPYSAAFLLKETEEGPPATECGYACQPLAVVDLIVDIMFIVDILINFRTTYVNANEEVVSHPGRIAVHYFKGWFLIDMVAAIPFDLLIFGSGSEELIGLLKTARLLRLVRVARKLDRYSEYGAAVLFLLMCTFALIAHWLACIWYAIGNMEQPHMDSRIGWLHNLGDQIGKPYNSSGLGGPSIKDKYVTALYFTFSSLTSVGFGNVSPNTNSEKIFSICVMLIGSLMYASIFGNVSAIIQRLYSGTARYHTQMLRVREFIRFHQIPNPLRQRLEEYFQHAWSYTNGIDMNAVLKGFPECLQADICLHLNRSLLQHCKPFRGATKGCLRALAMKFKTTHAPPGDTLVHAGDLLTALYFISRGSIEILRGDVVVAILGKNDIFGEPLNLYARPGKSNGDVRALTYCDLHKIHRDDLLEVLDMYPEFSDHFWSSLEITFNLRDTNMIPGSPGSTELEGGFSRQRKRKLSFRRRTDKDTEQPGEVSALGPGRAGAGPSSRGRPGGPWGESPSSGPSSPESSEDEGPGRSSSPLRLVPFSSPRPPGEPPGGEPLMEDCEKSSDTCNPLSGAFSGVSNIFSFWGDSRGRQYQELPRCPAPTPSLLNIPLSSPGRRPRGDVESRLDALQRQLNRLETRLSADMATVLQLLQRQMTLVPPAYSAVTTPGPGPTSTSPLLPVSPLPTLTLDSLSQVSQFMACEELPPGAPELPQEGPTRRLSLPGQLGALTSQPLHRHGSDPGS
row,Structure (SMILES),"hERG current change (%, negative = inhibition) at 10uM"
1,CC1CCN(C(=O)CSc2nnc(CNC(=O)COc3ccc(Cl)cc3)o2)CC1,-13.1%
2,COc1ccc(C(=O)Nc2cccc(-c3csc(C)n3)c2)cc1S(=O)(=O)N1CCCC1,-16.1%
3,CCOC(=O)CC1NCCc2c1[nH]c1ccc(OC)cc21.Cl (stereo not drawn),-0.727%
4,CC(C1CCN(Cc2cn(C)nc2-c2cccc(Cl)c2)CC1)N1CCOCC1 (stereo not drawn),-26.9%
5,Cc1ccc2c(O)c(C)c(=O)[nH]c2n1,24.3%
6,COc1ccccc1NC(=O)N1CCCC1C(=O)NC1CCCCC1 (stereo not drawn),9.76%
7,CC1CN(C)C(C)CC1NCc1ccc2c(c1)OCO2 (stereo not drawn),2.23%
8,Cc1ccc(Cl)cc1N1CCN(S(=O)(=O)c2ccc3c(c2)oc(=O)n3C)CC1,-1.03%
9,Cc1cc(=O)oc2cc(OCc3ccc(C(=O)N4CCN(c5ccccc5)CC4)cc3)ccc12,12.3%
10,Cc1ccc(C)c(NC(=O)C2C(c3ccccc3)C2(Cl)Cl)c1 (stereo not drawn),-0.995%
11,Clc1ccc(CSc2snnc2-c2ccccc2)c(Cl)c1,2.83%
12,Cc1csc(SCC(=O)NCc2ccccc2Cl)n1,-4.12%
13,CN=C(c1ccco1)n1c(=S)nc(-c2ccco2)n(C)c1=S,9.7%
14,COc1ccccc1C(=O)NC(=S)Nc1ccc(N2CCCC2)cc1,3.11%
15,Cc1ccccc1OCCC(=O)OCC(=O)NC1CCCCC1,-12.2%
16,CN(C)S(=O)(=O)c1cccc(NC(=O)C2Cc3ccccc3CN2C(=O)c2ccco2)c1 (stereo not drawn),-30.4%
17,COC(=O)c1ccccc1NC(=O)CN1CCC(C(=O)c2ccc3c(c2)OCCO3)CC1,11.2%
18,Cc1ccc(C)c(S(=O)(=O)Nc2ccc(C(=O)NCCCN3CCCC3=O)cc2)c1,10.1%
19,Cc1cc(CN2CCC(N3CCC(C(=O)NC4CC4)CC3)CC2)cc(C)c1O,10.6%
20,CCN1/C(=C(\O)c2ccccc2)C(=O)c2ccccc2S1(=O)=O,6.32%
21,Cc1ccc(CNC(=O)C(Cc2ccccc2)n2cccc2)cc1 (stereo not drawn),-9.77%
22,Cc1ccc(-c2nc(C#N)c(NCCN3CCCCC3)o2)cc1,-55.8%
23,O=c1cc(NCc2ccccc2)nc2n1CCCS2,-0.847%

row,Structure (SMILES),"hERG current change (%, negative = inhibition) at 10uM"
1,COC(=O)/C(=C\Nc1ccc(Cl)c2ccccc12)c1ncc(C(F)(F)F)cc1Cl,16.6%
2,Cc1cccc(NC(=O)C(=O)NCc2ccccn2)c1,-6.54%
3,COc1cc(/C=C/C(=O)N2CCN(Cc3ccccc3)CC2)cc(OC)c1OC,7.2%
4,CCC(C)(C)NC(=O)c1cc(C(=O)OC)cc([N+](=O)[O-])c1,-18%
5,CCN(C(=O)CN1CCOCC1)c1c(N)n(Cc2ccccc2)c(=O)[nH]c1=O,22.2%
6,COc1ccc(CCNC(=O)c2ccc3c(SCC(=O)O)c4c(nc3c2)CCCC4)cc1OC,13.9%
7,CN(c1ccc(C(=O)NCc2cccs2)cc1)S(=O)(=O)c1ccccc1,5.17%
8,Cc1cccc(NC(=O)CN2C(=O)CCSc3ccc(S(=O)(=O)N4CCOCC4)cc32)c1C,4.82%
9,CCOC(=O)c1c(C)[nH]c(C)c1C(=O)CN1C(=O)NC(CC(C)C)C1=O (stereo not drawn),10%
10,Cc1cc(S(=O)(=O)N2CCCC2)ccc1OCC(=O)NCc1ccccn1,4.98%
11,CN(C)c1ccc(/C=N\Nc2ccccn2)cc1,-5.86%
12,O=C(N/C(=C\c1ccccc1)C(=O)N1CCOCC1)c1ccco1,17.1%
13,CC12CCC(=O)N1C(C(=O)NCCc1ccccc1)CS2 (stereo not drawn),6.77%
14,Cc1n[nH]c(=O)c2c(NC(=O)CSc3c(Cl)cccc3Cl)oc(C)c12,-11.8%
15,CCOC(=O)Nc1c2ccccc2nc2ccccc12,-1.71%
16,COc1ccccc1CCN1CCCC(CN(C)C(=O)c2ccco2)C1 (stereo not drawn),-68.9%
17,O=C(O)C1CCCN(S(=O)(=O)c2ccccc2[N+](=O)[O-])C1 (stereo not drawn),1.83%
18,CN(CC(=O)NNC(=O)CNC(=O)c1ccccc1Cl)S(=O)(=O)c1ccc(Cl)cc1,9.57%
19,S=C(NCCCn1ccnc1)NC1CCCCC1,-13.5%
20,O=C(NCCCN1CCOCC1)c1cc2nc(-c3ccco3)cc(C(F)(F)F)n2n1,1.15%
21,C=CCOc1c(Cl)cc(CNc2ccc(N(C)C)cc2)cc1OC,19.5%
22,N#CCCC(CCC#N)(CCC#N)c1cc[n+](CCc2ccccn2)cc1.[Cl-],19.9%
23,CCOc1ccc(C(C(=O)NC2CCCC2)N(CCCO)C(=O)c2ccc(-c3ccccc3)[nH]2)cc1 (stereo not drawn),-61.6%

row,Structure (SMILES),"hERG current change (%, negative = inhibition) at 10uM"
1,O=C(N/N=C/c1c[nH]c2ccc(Br)cc12)c1ccncc1,20.1%
2,O=C(CN1CCc2ccccc2C1)NCc1ccco1,-11.9%
3,Cn1c(=O)n(CCc2ccccc2)c(=O)c2c1nc1n2CCCN1c1ccccc1,-20.7%
4,CCCCC(=O)NCCc1cc2c(C)ccc(C)c2[nH]c1=O,2.66%
5,Cc1ccc(Oc2ncccc2C(=O)NCC(=O)O)cc1,17.2%
6,COc1ccc(OC)c(NC(=O)N2CCCC(CNS(=O)(=O)c3cccs3)C2)c1 (stereo not drawn),-2.77%
7,COc1ccc(NC(=O)CN(C)C(C)C(=O)N2CCCCC2)cc1 (stereo not drawn),3.97%
8,Cc1nn(-c2ccccc2)c(C)c1/C=N/NC(=O)c1cc(C(C)(C)C)[nH]n1,-9.72%
9,Oc1ccc(CN2CCCc3ccccc32)c2cccnc12,-3.86%
10,COc1ccc(C2C(C(=O)Nc3ccccc3OC)=C(C)Nc3nnnn32)c(OC)c1 (stereo not drawn),-0.478%
11,CCOC(=O)CCNC(=O)c1ccc2nc(C3CCCCC3)oc2c1,1.03%
12,COc1ccc(CC(=O)OCc2cc3ccccc3[nH]c2=O)cc1,9.28%
13,COC(=O)c1sccc1NC(=O)c1csc2c1CCCC2,-10.9%
14,O=C(c1ccc(CN2CCc3ccccc3C2)cc1)N1CCc2ccccc2C1,-7.54%
15,O=C(CSc1nnc2c(n1)[nH]c1ccccc12)N1CCCCC1,-21.4%
16,CCOC(=O)C1CCN(C(=O)Cn2ncc3c([nH]c4ccccc43)c2=O)CC1,2.4%
17,Fc1c(F)c(F)c(SCn2cc(Br)cn2)c(F)c1F,5.23%
18,CCOC(=O)C[C@H]1c2ccc(C(F)(F)F)cc2S(=O)(=O)N1c1ccccc1,-3.62%
19,Cc1ccc(C)c(C(=O)COC(=O)Cn2c(C)csc2=O)c1,10.2%
20,c1ccc2c(-c3nnc(SCc4cn5ccccc5n4)o3)c[nH]c2c1,-4.5%
21,Cc1cc2c(NC(=O)Nc3ccccc3)cccc2nn1,9.77%
22,O=C(CCC(=O)c1cccs1)Nc1ccc(N2CCCCC2)cc1,-9.27%
23,CS(=O)(=O)Nc1ccc(C(=O)NCCc2ccccc2)cc1,-69.6%

row,Structure (SMILES),"hERG current change (%, negative = inhibition) at 10uM"
1,O=C(O)CC(NC(=O)c1ccco1)c1ccco1 (stereo not drawn),17.4%
2,COc1ccc(-c2cc(C(F)(F)F)nc(SCC(=O)N(C)Cc3cnn(C)c3C)n2)cc1OC,-42.4%
3,CCCCCC/C=C/c1ccc([C@H]2[C@H]3C=CC[C@@H](C)[C@@H]3C(=O)N2Cc2ccccc2)c(F)c1,4.76%
4,O=C(COc1ncnc2ccccc12)NCCc1ccc(F)cc1,-6.11%
5,CC(=O)N/C(=C\c1ccccc1)C(=O)OCC(=O)c1c(N)n(CC(C)C)c(=O)n(C)c1=O,-3.67%
6,CCNC(=O)C/C(C)=N/NC(=O)C12CC3CC(CC(C3)C1)C2,22.3%
7,O=C(Cn1cc([N+](=O)[O-])cn1)Nc1cccnc1,10.1%
8,COc1cccc(C(=O)c2c[nH]c(C(=O)NCCCN3CCOCC3)c2)c1,38.1%
9,CCOC(=O)c1cnc(SC)nc1Oc1cccc(NC(=O)c2ccc(C)cc2)c1,11.4%
10,Cc1cccc(C(=O)Nc2cccc(Br)c2)c1[N+](=O)[O-],10.1%
11,COP(=O)(OC)c1nc(-c2cccc3ccccc23)oc1NCCc1ccccc1,1.62%
12,CN1CCC(NC(=O)c2cccs2)CC1,6.5%
13,O=C(CCSc1nc(-c2ccco2)cc(C(F)(F)F)n1)NCCN1CCOCC1,10%
14,O=C1/C(=C/c2ccncc2)SC(=S)N1C1CCCCC1,6.81%
15,Clc1ccc(-c2nnnn2-c2ccc(Cl)cc2)cc1,6.99%
16,CN[C@H](CC(=O)O)C(=O)O,-6.27%
17,O=C(O)c1c2c(nc3ccc(Cl)cc13)CCC2,4.39%
18,CN1CCN(C(=O)c2cc(C(C)(C)C)cc(C(C)(C)C)c2)CC1,-12.1%
19,COc1ccc(NC(=O)CCS(=O)(=O)c2ccccc2)c(OC)c1,-3.69%
20,COc1ccc(C)cc1NC(=O)Nc1ccc(C(=O)N2CCCC2)cc1,-23%
21,COc1ccc(OCc2nnc(SC3CCOC3=O)n2-c2ccccc2)cc1 (stereo not drawn),-11.2%
